Measured values as given in the supplement of paper PMC12645437, “Orthogonal IMiD-Degron Pairs Induce Selective Protein Degradation in Cells” (ACS Chemical Biology, 2025).
Some of the results follow.

B1: Q9UKT9 (peptide)
chain: FKCSVCGHWFTQKGNLLRHIKL
B2: Q9UKT9 (peptide)
chain: FKCDICGAWFTQKGNLLRHIKL
B3: Q9UKT9 (peptide)
chain: FSCNQCGAWFTQKGNLLRHIKL
B4: Q9UKT9 (peptide)
chain: FYCPICGAAFTQKGNLLRHIKL
B5: Q9UKT9 (peptide)
chain: FECPICGHHFTQKGNLLRHIKL
B6: Q9UKT9 (peptide)
chain: FQCPICGHVFTQKGNLLRHIKL
B7: Q9UKT9 (peptide)
chain: FICEICGRTFTQKGNLLRHIKL
B8: Q9UKT9 (peptide)
chain: LSCEICGFSCTQKGNLLRHIKL
B9: Q9UKT9 (peptide)
chain: FECEVCGAIFTQKGNLLRHIKL
B10: Q9UKT9 (peptide)
chain: FCCEICGRLFTQKGNLLRHIKL
B11: Q9UKT9 (peptide)
chain: FQCEICGRRFTQKGNLLRHIKL
B12: Q9UKT9 (peptide)
chain: FGCEICGAWFTQKGNLLRHIKL
B13: Q9UKT9 (peptide)
chain: FICPICGHCFTQKGNLLRHIKL
B14: Q9UKT9 (peptide)
chain: FCCNQCGAWFTQKGNLLRHIKL

target: no compound (DMSO); test: log2 fold change of degron read counts, EGFP-low vs EGFP+ sorted cells; higher = lower degron-EGFP level without compound (poor expression or instability); conditions: compound: DMSO control; 18 h
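Also: jurkat cells carrying a lentiviral library of mutant zinc finger degrons fused to EGFP plus mCherry, mCherry+ cells FACS sorted, degron abundance counted by next-generation sequencing.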

| Sequence | log2 fold change of degron read counts |
| --- | --- |
| B1 | 0.389 |
| B2 | -0.461 |
| B3 | 0.104 |
| B4 | 0.0146 |
| B5 | -0.873 |
| B6 | -0.19 |
| B7 | -1.55 |
| B8 | -0.736 |
| B9 | -1.83 |
| B10 | -3.56 |
| B11 | -1.24 |
| B12 | -0.454 |
| B13 | -0.36 |
| B14 | 0.722 |
